Values joined by “and” are separate entries in the source; they are usually repeats but may differ in a detail not shown here. Equal entries are not always repeated. Among all 220,000 compounds or so, about 5,700 (2.6%) were called active. Inconclusive results, whose numbers are uncertain, are shown with a selection of clear calls. The call rests on the fitted dose curve; in most records, active means well fitted inhibition curve with a large enough effect; inconclusive means small, poorly fitted or top-dose-only effect; inactive means no such curve, though single readings can be large or run the other way. A potency beside an inconclusive call is a rough fit, not a confirmed value.
Each molecule was assayed against Lysine-specific demethylase 5B (Homo sapiens) (UniProt Q9UGL1) (assay: Primary screen for KDM5B Histone Demethylases FDH-coupled qHTS). Conditions: FDH-coupled NADH fluorescence (FDH is formaldehyde dehydrogenase); activity change, negative = inhibition: at 57.7 µM (top of the series) unless noted.
Procedure, shortened: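 Measured: NADH fluorescence change, 30 min, RT. System: KDM5BΔAP 200 nM final, H3K4me3 peptide, α-KG, Fe(II), ascorbate, NAD⁺ plus FDH, pH 7.5 HEPES. Compounds: titrated, 10 min pre-incubation with enzyme.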
Further: nearly all actives have a fitted effect of over 70% in size.
Potency means the concentration at half of the fitted maximal effect; tags describe the fitted curve by direction and shape.
Wherever activity change, negative = inhibition is given: 0% is about no effect.

Chain of UniProt Q9UGL1 (Q9UGL1 whole entry, looked up): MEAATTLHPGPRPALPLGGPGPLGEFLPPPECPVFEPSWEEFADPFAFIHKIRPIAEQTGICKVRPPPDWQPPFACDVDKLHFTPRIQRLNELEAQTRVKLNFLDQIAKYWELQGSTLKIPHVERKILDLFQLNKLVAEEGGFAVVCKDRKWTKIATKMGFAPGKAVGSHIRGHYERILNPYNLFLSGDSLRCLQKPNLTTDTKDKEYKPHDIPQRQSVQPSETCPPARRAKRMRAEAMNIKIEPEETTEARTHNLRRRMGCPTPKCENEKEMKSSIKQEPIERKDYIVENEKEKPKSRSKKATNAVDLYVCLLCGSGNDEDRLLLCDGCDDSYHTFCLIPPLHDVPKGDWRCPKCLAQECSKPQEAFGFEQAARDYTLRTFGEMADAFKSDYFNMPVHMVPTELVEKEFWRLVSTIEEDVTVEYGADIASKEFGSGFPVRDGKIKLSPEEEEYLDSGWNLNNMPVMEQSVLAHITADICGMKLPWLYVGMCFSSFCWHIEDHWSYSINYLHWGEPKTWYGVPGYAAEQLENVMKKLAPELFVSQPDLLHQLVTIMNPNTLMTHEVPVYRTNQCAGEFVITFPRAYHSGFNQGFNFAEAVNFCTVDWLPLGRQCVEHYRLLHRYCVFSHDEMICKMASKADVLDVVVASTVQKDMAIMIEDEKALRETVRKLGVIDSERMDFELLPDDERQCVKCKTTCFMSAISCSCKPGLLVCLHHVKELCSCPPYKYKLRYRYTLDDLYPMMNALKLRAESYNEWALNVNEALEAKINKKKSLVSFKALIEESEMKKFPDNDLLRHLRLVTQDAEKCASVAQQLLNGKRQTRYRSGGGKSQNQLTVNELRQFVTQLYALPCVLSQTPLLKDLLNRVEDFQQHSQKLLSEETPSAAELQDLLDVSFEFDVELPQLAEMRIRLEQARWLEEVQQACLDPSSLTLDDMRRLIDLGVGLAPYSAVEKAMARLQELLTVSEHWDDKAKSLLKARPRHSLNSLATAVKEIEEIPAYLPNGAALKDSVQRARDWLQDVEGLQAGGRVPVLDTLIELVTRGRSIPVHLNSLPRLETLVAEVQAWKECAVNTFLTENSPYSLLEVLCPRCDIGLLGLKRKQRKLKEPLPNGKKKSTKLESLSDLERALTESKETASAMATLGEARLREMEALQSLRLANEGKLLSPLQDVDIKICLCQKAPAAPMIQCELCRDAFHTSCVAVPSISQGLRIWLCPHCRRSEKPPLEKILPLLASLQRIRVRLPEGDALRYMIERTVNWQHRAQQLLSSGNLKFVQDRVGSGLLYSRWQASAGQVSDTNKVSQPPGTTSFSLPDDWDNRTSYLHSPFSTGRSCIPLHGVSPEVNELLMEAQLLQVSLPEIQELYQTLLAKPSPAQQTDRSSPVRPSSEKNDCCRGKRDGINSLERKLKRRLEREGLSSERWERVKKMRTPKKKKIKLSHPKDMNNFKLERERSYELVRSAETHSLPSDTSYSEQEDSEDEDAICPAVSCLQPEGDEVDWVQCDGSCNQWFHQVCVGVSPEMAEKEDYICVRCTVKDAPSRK

With CCc1ccc(CN2CCN(C(=O)c3ccco3)CC2)cc1 as the molecule, how does the Potency read?
The Potency was inconclusive: 14.1 µM [inhibitor, partial curve, poor fit].

How did the “activity change, negative = inhibition” value turn out when CC(C)OC(=O)C(CC(=O)O)N1CCCC1 (stereo unspecified) was run?
The value was inactive: -1.84%.

Which Potency does the source give for CC(C)(CC(=O)O)CC(=O)N1CCN2C(=O)c3cc(-c4ccc(Cl)cc4)ccc3NC(=O)[C@H]2C1 here?
Its Potency is inconclusive: 17.8 µM [inhibitor, single point].

Which Potency does the source give for C=Cc1ccc(Cn2c(C(=O)O)c(CNCCc3ccco3)c3ccc(C)cc32)cc1 here?
Its Potency is inconclusive: 25.1 µM [inhibitor, partial curve, poor fit].

For Cc1ccccc1Nc1c(-c2ccc(N3CCOCC3)cc2)nc2cccc(C)n12, which Potency is on record?
The Potency was inconclusive: 5.01 µM [inhibitor, full curve, poor fit].

Which “activity change, negative = inhibition” value does the source give for Cc1ccc(-c2cnc(CCC(=O)N(C)CC(=O)Nc3ccccc3Br)o2)cc1 here?
Its value is inactive: -29.1%.

For N#Cc1cnc2ccc(F)cc2c1Nc1cccc(C(F)(F)F)c1, which Potency is on record?
Its Potency is inconclusive: 39.8 µM [inhibitor, single point].

With Cc1ccc(-n2ncc3c(NCCc4ccc(S(N)(=O)=O)cc4)ncnc32)cc1 as the molecule, how does the Potency read?
The Potency was inconclusive: 31.6 µM [inhibitor, partial curve, poor fit] and inconclusive: 28.2 µM [inhibitor, partial curve, poor fit].

Which Potency does the source give for CC(C)CNC(=O)c1csc(-c2cccc(OC(C)C)c2)n1 here?
The Potency was inconclusive: 28.2 µM [inhibitor, partial curve].

With Cc1cc(C)n(-c2ccc(C(=O)OCC(=O)NC3CCC(C)CC3)cc2)n1 (stereo unspecified) as the molecule, how does the “activity change, negative = inhibition” value read?
The value was inactive: -6.49%.

For c1ccc(-c2noc(-c3cncnc3NCc3ccc4c(c3)OCO4)n2)cc1, which Potency is on record?
The Potency was active: 12.6 µM.

How did the “activity change, negative = inhibition” value turn out when CNC(=O)c1cccc(-c2cnc3[nH]cc(CC(=O)NCc4cccs4)c3c2)c1 was run?
Its value is inactive: -7.38% [at 86.2 µM].

For CCOc1ccccc1NC(=O)CSc1ncc2c(n1)-c1ccccc1N(CC)S2(=O)=O, which Potency is on record?
Its Potency is inconclusive: 17.8 µM [inhibitor, single point].

Which Potency does the source give for Cc1sc(NC(=O)CCCCC(=O)Nc2sc(C)c(C)c2C(=O)O)c(C(=O)O)c1C here?
Its Potency is inconclusive: 22.4 µM [inhibitor, partial curve, poor fit].

Which Potency does the source give for O=C(NCCc1ccc(Cl)cc1)c1ccc(Nc2nc3ccccc3n3nnnc23)cc1 here?
Its Potency is inconclusive: 1.41 µM [inhibitor, full curve, poor fit].

COc1ccc(CCNc2ncnc3c2CN(C2CCCNC2)C(=O)CN3C)cc1 (stereo unspecified) was tested. Which Potency did it give?
The Potency was inconclusive: 50.1 µM [inhibitor, partial curve].

Which Potency does the source give for O=C(CC1CCCC1)N1CCC(N2CC3CC(C2)[C@H]2CCCC(=O)N2C3)CC1 (stereo partly specified) here?
The Potency was inconclusive: 14.1 µM [inhibitor, partial curve].

With COc1ccc2[nH]c(=O)c(CNc3ccccc3C)cc2c1 as the molecule, how does the Potency read?
The Potency was inconclusive: 25.1 µM [inhibitor, partial curve, poor fit].

For O=C(NCc1ccccc1)NC1COc2ccccc2C1 (stereo unspecified), which Potency is on record?
The Potency was inconclusive: 15.8 µM [inhibitor, partial curve, poor fit].

How did the Potency turn out when Cc1cccc(C)c1Nc1c(-c2ccccn2)nc2ccc(Cl)cn12 was run?
Its Potency is inconclusive: 15.8 µM [inhibitor, partial curve, poor fit].

Which “activity change, negative = inhibition” value does the source give for C[S+](=O)([O-])N1CC2(CCCN(Cc3ccccn3)C2)Cc2ccccc21 (stereo unspecified) here?
Its value is inactive: 18.5% [at 115 µM].

Which Potency does the source give for CN1c2cc(C(=O)N3CCc4ccccc4C3)ccc2C(=O)N2CCCCC21 (stereo unspecified) here?
The Potency was inconclusive: 28.2 µM [inhibitor, partial curve, poor fit].

How did the Potency turn out when COCCN1CC(CO)C2(CCN(Cc3cccc(Cl)c3F)CC2)C1 (stereo unspecified) was run?
The Potency was inconclusive: 17.8 µM [inhibitor, single point].

Which “activity change, negative = inhibition” value does the source give for COc1cc(NC(=O)N2CCCC(Cn3cnc4cccnc43)C2)cc(OC)c1OC (stereo unspecified) here?
The value was inactive: -15%.

How did the “activity change, negative = inhibition” value turn out when CCc1ccccc1NC(=O)c1n[nH]c(=O)c2ccccc12 was run?
The value was inactive: 25.2%.

Which Potency does the source give for COc1ccccc1-c1ccc2ncn(C3CC3)c(=O)c2n1 here?
The Potency was inconclusive: 44.7 µM [inhibitor, partial curve, poor fit].

How did the “activity change, negative = inhibition” value turn out when CN(C)C(=O)c1ccc(Cl)cc1NS(=O)(=O)c1cccc(F)c1 was run?
Its value is inactive: 21%.

CC(C)(C)n1cnc2c(N3CC4CCC(C3)N4CC(F)(F)F)ncnc21 was tested. Which “activity change, negative = inhibition” value did it give?
The value was inactive: -4.67% [at 115 µM].

How did the “activity change, negative = inhibition” value turn out when Cn1c(=O)c2nc(SCc3ccc(F)cc3)n(C)c2n(C)c1=O was run?
The value was inactive: 9.44%.

With CCN1c2cc(C(=O)NCc3ccncc3)ccc2C(=O)N2CCCCC21 (stereo unspecified) as the molecule, how does the Potency read?
The Potency was inconclusive: 22.4 µM [inhibitor, single point].

Which Potency does the source give for CCCc1cc(=O)oc2cc(C)cc(OC(C)C(=O)NCCCN3CCOCC3)c12 (stereo unspecified) here?
Its Potency is inconclusive: 25.1 µM [inhibitor, partial curve, poor fit].

With O=C(Cn1ccc2ccc(Cl)cc21)NCC1CCC(C(=O)O)CC1 (stereo unspecified) as the molecule, how does the “activity change, negative = inhibition” value read?
The value was inactive: 6.33%.

For CN(C)S(=O)(=O)c1cccc(NC(=O)CSc2cccc3cccnc23)c1, which Potency is on record?
The Potency was inconclusive: 28.2 µM [inhibitor, partial curve, poor fit].

OC1CCCN(CC(O)COC(c2ccccc2)c2ccccc2)C1 (stereo unspecified) was tested. Which Potency did it give?
Its Potency is inconclusive: 14.1 µM [inhibitor, partial curve, poor fit].

For CC(C)(CC(=O)O)CC(=O)N[C@H]1C[C@H]2C(=O)Nc3ccccc3C(=O)N2C1, which Potency is on record?
Its Potency is inconclusive: 25.1 µM [inhibitor, partial curve, poor fit].

Which Potency does the source give for CC(C)Oc1ccc(C(=O)N(Cc2ccc(N(C)C)cc2)Cc2ccco2)cc1 here?
The Potency was inconclusive: 35.5 µM [inhibitor, single point].

Which Potency does the source give for Cc1c(C)n(Cc2ccccc2)c2ccc(C(=O)N3CCN(c4ccccc4)CC3)cc12 here?
The Potency was inconclusive: 28.2 µM [inhibitor, partial curve, poor fit].

With CCN(CC)S(=O)(=O)c1ccc2c(c1)N(CC(=O)Nc1c(C)cccc1C)C(=O)C1CCCN21 (stereo unspecified) as the molecule, how does the Potency read?
The Potency was inconclusive: 7.94 µM [inhibitor, partial curve, poor fit].

CCOC(=O)c1c(C)sc2c1OC(N)=C(C#N)C21C(=O)N(C)c2ccccc21 (stereo unspecified) was tested. Which “activity change, negative = inhibition” value did it give?
Its value is inactive: -3.02%.

Which Potency does the source give for CCOC(=O)c1oc2c(c1C)-c1nn(Cc3cccc(Cl)c3)cc1CC2 here?
The Potency was inconclusive: 39.8 µM [inhibitor, single point].

For O=C(CSc1ncnc2ccccc12)Nc1c(Cl)cccc1Cl, which “activity change, negative = inhibition” value is on record?
Its value is inactive: 13.9%.

Which Potency does the source give for CC(C)C[C@@H]1N[C@H](C(=O)NCc2ccco2)Cc2cn(Cc3nccn3C)c3cccc1c23 here?
Its Potency is inconclusive: 22.4 µM [inhibitor, single point].

With CN(C)C[C@@H]1CN(c2ncccn2)C[C@H]1NC(=O)Cc1ccccc1Cl as the molecule, how does the Potency read?
Its Potency is active: 22.4 µM.

Which “activity change, negative = inhibition” value does the source give for COc1cc2c(cc1OC)CN(C(=O)c1sc3cccc(F)c3c1C)CC2 here?
Its value is inactive: 20.5%.

Which Potency does the source give for CCn1nccc1C(=O)N1CCCn2cc(-c3ccccc3)nc21 here?
Its Potency is inconclusive: 14.1 µM [inhibitor, partial curve].

Which Potency does the source give for Cc1cccc(N2CC(C(=O)Nc3nnc(SCC(=O)NCC4CCCO4)s3)CC2=O)c1 (stereo unspecified) here?
Its Potency is inconclusive: 25.1 µM [inhibitor, single point].

With CCOC(=O)c1cccc(NC(=O)CSc2ncc3c(n2)-c2ccc(Cl)cc2N(Cc2ccccc2)S3(=O)=O)c1 as the molecule, how does the Potency read?
Its Potency is inconclusive: 14.1 µM [inhibitor, partial curve, poor fit].

CN(Cc1ccc(F)cc1)C(=O)Cc1cccc(Cl)c1 was tested. Which “activity change, negative = inhibition” value did it give?
Its value is inactive: -17.1% [at 86.2 µM].

How did the Potency turn out when COc1ccccc1NC(=O)c1ncoc1-c1cccc(C)c1 was run?
The Potency was inconclusive: 1.78 µM [inhibitor, partial curve, poor fit].

How did the “activity change, negative = inhibition” value turn out when CC(C)(C)c1ccc(/C=N/OCC(=O)Nc2ccc3c(c2)OCCO3)cc1 was run?
The value was inactive: 13.3%.

For CCCOc1nccnc1NC1CCN(C(=O)c2ccsc2)CC1, which Potency is on record?
The Potency was active: 28.2 µM.

For COc1ccc(C=O)cc1CN1CCCCCC1, which “activity change, negative = inhibition” value is on record?
Its value is inactive: -6.79%.

With O=S(=O)(c1ccccc1)c1nc(-c2ccc(F)cc2)oc1NCc1ccccc1 as the molecule, how does the Potency read?
Its Potency is inconclusive: 35.5 µM [inhibitor, partial curve, poor fit].

With COc1ccc(OC)c(-c2cc(C(=O)N/N=C/c3ccc(F)cc3)c3ccccc3n2)c1 as the molecule, how does the Potency read?
The Potency was inconclusive: 35.5 µM [inhibitor, partial curve, poor fit].

Which Potency does the source give for CC(=O)N1CCC2(CC1)CN(C(=O)c1ccnc(N)c1)Cc1ccccc1O2 here?
The Potency was inconclusive: 79.4 µM [inhibitor, partial curve].

Which “activity change, negative = inhibition” value does the source give for CCOC(=O)Cc1ccc(NC(=O)N2CCN(Cc3nccn3C)CC2)cc1 here?
The value was inactive: 4.32%.

How did the Potency turn out when O=C(O)C1(Oc2ccc(Cl)cc2)CCN(c2cnccn2)CC1 was run?
The Potency was inconclusive: 17.8 µM [inhibitor, single point].

Cc1cccc(C(=O)Nc2ccc(N3CC=C(c4ccccc4C)CC3)c(C(=O)O)c2)c1 was tested. Which Potency did it give?
Its Potency is inconclusive: 35.5 µM [inhibitor, partial curve, poor fit].

How did the Potency turn out when CCCCCCc1cnc(-c2ccc(OC(F)(F)F)cc2)nc1 was run?
Its Potency is inconclusive: 22.4 µM [inhibitor, partial curve, poor fit].

How did the Potency turn out when O=C(Nc1ccc(Oc2ccccc2)cc1)c1cc2n(n1)CC(c1ccc(Cl)cc1)OC2 (stereo unspecified) was run?
Its Potency is inconclusive: 17.8 µM [inhibitor, partial curve, poor fit].

How did the Potency turn out when Cc1ccc(CN2CCN(c3nc(C)ccc3C#N)CC2CCO)cc1 (stereo unspecified) was run?
The Potency was active: 17.8 µM.

Which Potency does the source give for Cc1ccc(-c2cnc(-c3ccccc3C(=O)OCC(=O)NCCC#N)o2)cc1 here?
Its Potency is inconclusive: 28.2 µM [inhibitor, partial curve, poor fit].

With CC(C)CCCC(C)CC1C(C#N)=C(N)SC(N)=C1C#N (stereo unspecified) as the molecule, how does the Potency read?
The Potency was inconclusive: 39.8 µM [inhibitor, single point].

Which “activity change, negative = inhibition” value does the source give for CC(c1cccc2ccccc12)N(C(=O)c1cccs1)C1CC1 (stereo unspecified) here?
Its value is inactive: 7.35%.

How did the “activity change, negative = inhibition” value turn out when COc1cc(NC(=O)CN2CCCN(Cc3cccc(F)c3)S2(=O)=O)cc(OC)c1 was run?
The value was inactive: -6.77%.

CCOc1ccccc1NC(=O)c1cc2c(=O)n3ccccc3nc2n1C was tested. Which “activity change, negative = inhibition” value did it give?
The value was inactive: -14%.

— PubChem BioAssay AID1347165 (National Center for Advancing Translational Sciences (NCATS), 2019)
